# Results: PubChem BioAssay
# Inconclusive results, whose numbers are uncertain, are shown with a selection of clear calls. The source made the active and inactive calls.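 Rule for the calls, unless noted: active = thallium flux rate significantly above the same plate's solvent-only control wells, beyond their mean plus 3 SD; inconclusive = the two replicate wells gave conflicting results; inactive = the rest.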
# Key:
# [1] = compound effects on native HEK Tl+ uptake – HEK cells, counterscreen 1, counter-screen for KCC2 modulator project, confirmation (AID 1716); settings: HEK293 parental cells, thallium flux FluoZin2, ouabain; at 10 µM; baseline-ratio fluorescence slope, 10–20 s after thallium
# [2] = biological target: Solute carrier family 12 member 5 (Homo sapiens) (UniProt Q9H2X9); experiment: modulation of KCC2 thallium flux in HEK cells – cell-based, ouabain, retest, confirmation (AID 1717;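 active = thallium flux slope beyond 3 SD from same-plate DMSO control mean in most replicates, usually higher, sometimes lower; inconclusive = repeat tests gave conflicting results; inactive = no significant difference from controls in most replicates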;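 note: slope of initial-normalized fluorescence between seconds 10 and 20 after thallium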); settings: HEK293-KCC2, thallium flux FluoZin2 fluorescence, at 10 µM, bidirectional: low = inhibitor, high = activator
# [3] = native HEK Tl+ uptake effects, second counter-screen – HEK cells, counterscreen 2, counter-screen for KCC2 modulator project, confirmation (AID 1718;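 active = thallium flux slope above the same plate's solvent-control mean plus 3 SD in both duplicate wells; inconclusive = duplicate wells that disagreed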;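 note: run without ouabain in cells lacking the KCC2 cotransporter; slope of fluorescence scaled to its starting value between 10 and 20 s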); settings: HEK293 parental, thallium flux FluoZin-2 fluorescence slope; at 10 µM
# Outline: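 Assay system – untransfected HEK cells, thallium influx assay · Buffer or medium – HBSS with 20 mM HEPES for dye loading · Doses – single 10 µM final compound dose, 0.1% DMSO · Times – 37 °C overnight growth, 48 min FluoZin2-AM loading · Detection – FluoZin-2 fluorescence kinetics · Benchmarks – bumetanide 2 mM as positive control · Repeats – Per-replicate slope values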
# UniProt Q9H2X9, sequence (Q9H2X9 whole entry, looked up): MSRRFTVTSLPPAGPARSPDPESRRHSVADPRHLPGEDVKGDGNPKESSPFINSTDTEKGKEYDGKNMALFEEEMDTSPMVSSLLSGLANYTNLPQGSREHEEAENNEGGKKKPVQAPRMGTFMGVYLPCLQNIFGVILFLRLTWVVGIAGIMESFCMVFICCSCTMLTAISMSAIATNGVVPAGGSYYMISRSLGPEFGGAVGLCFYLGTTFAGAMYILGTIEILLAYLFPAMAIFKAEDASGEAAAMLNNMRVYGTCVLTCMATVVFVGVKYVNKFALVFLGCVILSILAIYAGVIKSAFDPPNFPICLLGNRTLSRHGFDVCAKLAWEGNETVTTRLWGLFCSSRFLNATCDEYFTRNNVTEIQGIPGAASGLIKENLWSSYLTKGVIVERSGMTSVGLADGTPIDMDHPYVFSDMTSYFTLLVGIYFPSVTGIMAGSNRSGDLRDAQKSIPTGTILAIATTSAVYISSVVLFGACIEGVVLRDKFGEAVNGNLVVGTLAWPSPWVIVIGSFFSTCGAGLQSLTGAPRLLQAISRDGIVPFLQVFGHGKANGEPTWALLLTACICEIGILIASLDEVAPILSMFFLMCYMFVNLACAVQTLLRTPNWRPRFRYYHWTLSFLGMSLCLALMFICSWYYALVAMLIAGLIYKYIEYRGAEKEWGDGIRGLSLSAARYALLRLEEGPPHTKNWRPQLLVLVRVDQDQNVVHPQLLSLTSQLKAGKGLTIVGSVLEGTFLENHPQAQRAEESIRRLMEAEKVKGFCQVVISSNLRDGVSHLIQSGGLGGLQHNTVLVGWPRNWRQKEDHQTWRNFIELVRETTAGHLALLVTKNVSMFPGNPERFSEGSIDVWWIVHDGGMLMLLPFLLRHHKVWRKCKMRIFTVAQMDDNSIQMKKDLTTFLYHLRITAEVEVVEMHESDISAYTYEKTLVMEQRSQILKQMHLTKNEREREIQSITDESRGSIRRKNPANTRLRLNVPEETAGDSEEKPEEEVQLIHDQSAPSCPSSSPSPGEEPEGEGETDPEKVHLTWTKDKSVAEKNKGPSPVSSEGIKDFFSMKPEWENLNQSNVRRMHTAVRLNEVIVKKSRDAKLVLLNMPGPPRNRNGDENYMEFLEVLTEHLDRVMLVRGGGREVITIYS
Compound,thallium flux rate (normalised fluorescence) [1],"raw Tl+ flux slope (below DMSO = inhibition, above = activation) [2]",thallium flux slope [3]
CC1CCC(C(=O)NNC(=O)c2cc(-c3ccco3)[nH]n2)CC1 (centres undefined),inconclusive: 0.00598,inconclusive: 0.0221,–
CCOC(=O)NC(=O)CSc1ccc(C)cc1C,inconclusive: 0.00876,inactive: 0.0175,–
CN(C)c1ccc(C(=O)c2ccc(O)cc2O)cc1,inactive: 0.00747,inconclusive: 0.0179,–
O=C(/C=C/c1ccc(F)cc1)NC(=S)N1CCN(c2ccccn2)CC1,active: 0.013,inconclusive: 0.0242,active: 0.0135
Cc1[nH]n(-c2ccccc2)c(=O)c1C=Nc1cccc(F)c1,active: 0.0164,inactive: 0.0282,inconclusive: 0.0116
O=[N+]([O-])c1c(NCCCO)cc(Sc2nc3ccccc3s2)c2nonc12,active: 0.0129,inconclusive: 0.0265,–
c1ccc(-n2cnc3cc(NCc4ccncc4)ccc32)cc1,inactive: 0.00738,inconclusive: 0.019,–
COC(=O)c1ccccc1NC(=S)NC(=O)c1ccccc1C,active: 0.0135,inconclusive: 0.0312,inconclusive: 0.01
CC(C)(C)c1cc(C(=O)NNC(=O)c2ccc(Cl)cc2)no1,active: 0.0571,inconclusive: 0.0437,active: 0.0255
O=c1nc(SCc2ccccc2Cl)nc(-c2ccc(Cl)cc2)[nH]1,inconclusive: 0.0435,inconclusive: 0.0164,inactive: 0.00938
C[C@@H](C[C@@H](O)[C@H](O)C(C)(C)O)[C@@H]1CC[C@]2(C)C3=CC[C@H]4C(C)(C)C(=O)CC[C@]4(C)[C@H]3CC[C@@]12C,inactive: 0.00773,inconclusive: 0.0266,inactive: 0.0112
COc1ccc(-c2cc(C(=O)OCC(=O)c3c(N)n(C)c(=O)n(C)c3=O)c3ccccc3n2)cc1,inactive: 0.00707,inactive: 0.0209,inconclusive: 0.00986
CN1/C(=C\C(=S)NC(=O)c2cccc(Br)c2)C(C)(C)c2ccccc21,inconclusive: 0.0132,inconclusive: 0.024,–
COc1ccc(S(=O)(=O)N2CCCCC2)cc1NC(=O)CSc1ncnc2ccccc12,inconclusive: 0.00652,active: 0.0152,–
Cc1ccc(C)c(C2=NNC(=NCc3ccccc3)SC2)c1,inconclusive: 0.0181,active: 0.0328,inconclusive: 0.0139
O=C(NCCc1cn2ccccc2n1)c1cc(COc2ccc3ncccc3c2)on1,inactive: 0.00743,inconclusive: 0.0189,–
Cc1c(-c2n[nH]c(=S)n2-c2ccc(Br)cc2)nnn1-c1ccc(Cl)cc1,active: 0.0102,inactive: 0.029,inconclusive: 0.0113
Cc1cccnc1Nc1nc(-c2ccc(O)cc2)cs1,inactive: 0.00741,inactive: 0.018,inconclusive: 0.0107
Cn1c(SCc2c(Cl)cccc2Cl)nnc1-c1cccs1,inconclusive: 0.00617,inconclusive: 0.0153,–
S=C1NC2(CCCCCC2)N=C1c1ccccc1,inconclusive: 0.00935,inconclusive: 0.0251,–
O=C(/C=C/c1ccc(Br)cc1)NC(=S)NNC(=O)c1ccco1,inconclusive: 0.0053,inactive: 0.0215,–
O=C(CN(Cc1ccccc1)S(=O)(=O)c1ccc2c(c1)OCCO2)Nc1ccc2c(c1)OCCO2,active: 0.00622,inconclusive: 0.0154,–
Cn1cnc([N+](=O)[O-])c1NCc1ccccc1,inactive: 0.00781,inconclusive: 0.0165,–
COc1cc(NS(=O)(=O)c2ccc(C)cc2)c2ncccc2c1,inconclusive: 0.043,active: 0.0624,inconclusive: 0.0166
O=C(CCn1c(=O)oc2ccccc21)N1CCc2ccccc21,inactive: 0.0068,inconclusive: 0.0163,inactive: 0.00954
COc1ccc(-n2c(C)cc(C(=O)CSc3nnc(-c4ccoc4C)n3C)c2C)cc1,inconclusive: 0.00619,inactive: 0.0197,inactive: 0.00995
CCn1c(-c2sc(-c3ccccc3)nc2C)n[nH]c1=S,active: 0.0138,inconclusive: 0.023,active: 0.0173
CCOC(=O)N1CCN(c2nc3ccccc3nc2C(C#N)S(=O)(=O)c2ccc(C)cc2)CC1 (centres undefined),inconclusive: 0.00765,inconclusive: 0.0155,inconclusive: 0.009
O=C(Nc1ccc2oc(-c3ccccc3)nc2c1)c1ccncc1,inactive: 0.00737,inconclusive: 0.0169,inactive: 0.0109
